From patent publication US20240092908A1 (ZHEJIANG DOER BIOLOGICS, published 2024) come the findings set out here.

Test [1] deals with T1, fusion protein hPD1-HSA composed of a PD1 extracellular domain sequence and a human serum albumin sequence (human).
T1 construct: PD-1 extracellular domain fused to HSA; also called Human hPD1-HSA; human PD-1
As to the kind of experiment: competitive ELISA, hPD1-HSA coated; competitor bio-hPDL1-FC, HRP-Streptavidin.

For test [2], the target named is T1, fusion protein hPD1-HSA composed of a …. As to the kind of experiment: ELISA, hPD1-HSA coated 200 ng/well, HRP anti-human IgG Fc.

The term IC50 denotes the concentration at which inhibition is half-maximal. A low value points to greater potency. The term EC50 denotes the concentration needed to bring the measured effect to its halfway point. A higher EC50 goes with a need for much substance.

B1: Anti-PD1-hu1D3V1-Fc (Fc fusion)
chain: QVQLVESGGGLVQPGGSLRLSCAASGSVFIIDVMAWYRQAPGKQRELVAQIINGGATYYADSVKGRFTISRDNSKNTLYLQMNSLRAEDTAVYYCSAEKFNPYRDSTHFWGQGTLVTVSS[human IgG4 Fc with S228P (EU numbers) not written out]
Turning to B1, in test [1], the IC50 is 1.1 nM. This molecule also registered an EC50 in test [2] of 0.061 nM.

B2: Anti-PD1-1A9-Fc (Fc fusion)
chain: QVQLVESGGGLVQPGGSLNLSCVASGNVFIIDVMAWYRQAPGKQRELVAQIINGGATYYADSVKGRFTISRDDTKTTLNLQMNSLKPDDTAVYYCSAEKFNPYRDSTHFWGQGTQVTVSA[human IgG4 Fc with S228P (EU numbers) not written out]
In turn, B2 yielded a half-maximal inhibitory concentration (IC50) in test [1] of 1.55 nM. The molecule also showed an EC50 in test [2] of 0.058 nM.

B3: Anti-PD1-1H1-Fc (Fc fusion)
chain: QVQLVESGGGLVQPGGSLNLSCVASGSVFIIDVMAWYRQAPGKQRELVAQIINGGASYYADSVKGRFTISRDNTKTTLFLQMNSLKPADTAVYYCNAEKFNPYRDSTNFWGQGTQVTVSS[human IgG4 Fc with S228P (EU numbers) not written out]
In test [1], B3 came in with an IC50 of 1.53 nM. The midpoint of the response in test [2], the EC50, lay at 0.051 nM.

B4: Anti-PD1-2D9-Fc (Fc fusion)
chain: QVQLVESGGGLVQPGGSLRLSCAASGSVFIIDVMAWYRQAPGKQRELVAQIINGDAKYYADSVKGRFTISRDNTKTTLYLQMNSLKPDDTAVYYCSAEQFNPYRDSTYFWGQGTQVTVSS[human IgG4 Fc with S228P (EU numbers) not written out]
On to B4, for which the IC50 in test [1] stood at 1.44 nM. In test [2], it took 0.078 nM to reach a half-maximal effect (EC50).

B5: Anti-PD1-hu2D9V1-Fc (Fc fusion)
chain: QVQLVESGGGLVQPGGSLRLSCAASGSVFIIDVMAWYRQAPGKQRELVAQIINGDAKYYADSVKGRFTISRDNSKNTLYLQMNSLRAEDTAVYYCSAEQFNPYRDSTYFWGQGTLVTVSS[human IgG4 Fc with S228P (EU numbers) not written out]
In test [1], B5 registered a 50% inhibitory concentration (IC50) of 1.03 nM. Also, the EC50 in test [2] is 0.062 nM.

B6: Anti-PD1-hu1H1V3-Fc (Fc fusion)
chain: QVQLVESGGGLVQPGGSLRLSCAASGSVFIIDVMAWYRQAPGKGLELVAQIINGGASYYADSVKGRFTISRDNSKNTLYLQMNSLRAEDTAVYYCNAEKFNPYRDSTNFWGQGTLVTVSS[human IgG4 Fc with S228P (EU numbers) not written out]
For the molecule B6, in test [1], the half-maximal inhibitory concentration (IC50) is 1.12 nM. In test [2], this molecule returned an EC50 of 0.06 nM.

B7: Anti-PD1-hu2C4V3-Fc (Fc fusion)
chain: QVQLVESGGGLVQPGGSLRLSCAASGSVFIIDVMAWYRQAPGKGLELVAQIISGDHAYYADSVKGRFTISRDNSKNTLYLQMNSLRAEDTAVYYCSAEKFNPYRDSTYFWGQGTLVTVSS[human IgG4 Fc with S228P (EU numbers) not written out]
B7 showed an IC50 in test [1] of 1.19 nM. The molecule also gave an EC50 in test [2] of 0.055 nM.

B8: Anti-PD1-hu1A4V1-Fc (Fc fusion)
chain: QVQLVESGGGLVQPGGSLRLSCAASGNVFIIDVMAWYRQAPGKQRELVAQIINGDAKYYADSVKGRFTISRDNSKNTLYLQMNSLRAEDTAVYYCSAEKFNPYRDSTNFWGQGTLVTVSS[human IgG4 Fc with S228P (EU numbers) not written out]
Turning to B8, the IC50 in test [1] turned out to be 0.965 nM. This molecule also came in with an EC50 in test [2] of 0.063 nM.

B9: Anti-PD1-hu2C4V1-Fc (Fc fusion)
chain: QVQLVESGGGLVQPGGSLRLSCAASGSVFIIDVMAWYRQAPGKQRELVAQIISGDHAYYADSVKGRFTISRDNSKNTLYLQMNSLRAEDTAVYYCSAEKFNPYRDSTYFWGQGTLVTVSS[human IgG4 Fc with S228P (EU numbers) not written out]
Regarding B9, the IC50 in test [1] came to 1.21 nM. The molecule further came in with an EC50 in test [2] of 0.058 nM.

B10: Anti-PD1-hu2D9V3-Fc (Fc fusion)
chain: QVQLVESGGGLVQPGGSLRLSCAASGSVFIIDVMAWYRQAPGKGLELVAQIINGDAKYYADSVKGRFTISRDNSKNTLYLQMNSLRAEDTAVYYCSAEQFNPYRDSTYFWGQGTLVTVSS[human IgG4 Fc with S228P (EU numbers) not written out]
B10 registered an IC50 in test [1] of 1.15 nM. The molecule further returned an EC50 in test [2] of 0.058 nM.

B11: Anti-PD1-hu1A9V3-Fc (Fc fusion)
chain: QVQLVESGGGLVQPGGSLRLSCAASGNVFIIDVMAWYRQAPGKGLELVAQIINGGATYYADSVKGRFTISRDNSKNTLYLQMNSLRAEDTAVYYCSAEKFNPYRDSTHFWGQGTLVTVSS[human IgG4 Fc with S228P (EU numbers) not written out]
Consider B11, for which the IC50 in test [1] worked out at 2.84 nM. This molecule displayed a concentration giving a half-maximal response (EC50) in test [2] of 0.058 nM.

B12: Anti-PD1-hu1A4V3-Fc (Fc fusion)
chain: QVQLVESGGGLVQPGGSLRLSCAASGNVFIIDVMAWYRQAPGKGLELVAQIINGDAKYYADSVKGRFTISRDNSKNTLYLQMNSLRAEDTAVYYCSAEKFNPYRDSTNFWGQGTLVTVSS[human IgG4 Fc with S228P (EU numbers) not written out]
For B12, the IC50 in test [1] is 2.43 nM. The molecule also yielded a 50% effective concentration (EC50) in test [2] of 0.048 nM.

B13: Anti-PD1-1D3-Fc (Fc fusion)
chain: QVQLVESGGGLVQPGGSLNLSCVASGSVFIIDVMAWYRQAPGKQRELVAQIINGGATYYADSVKGRFTISRDDTKTTLYLQMNSLKPDDTAVYYCSAEKFNPYRDSTHFWGQGTQVTVSS[human IgG4 Fc with S228P (EU numbers) not written out]
B13 returned an IC50 in test [1] of 1.49 nM. In test [2], this molecule had an EC50 of 0.056 nM.

B14: Anti-PD1-hu1A9V1-Fc (Fc fusion)
chain: QVQLVESGGGLVQPGGSLRLSCAASGNVFIIDVMAWYRQAPGKQRELVAQIINGGATYYADSVKGRFTISRDNSKNTLYLQMNSLRAEDTAVYYCSAEKFNPYRDSTHFWGQGTLVTVSS[human IgG4 Fc with S228P (EU numbers) not written out]
Regarding B14, the IC50 in test [1] came to 0.955 nM. In test [2], this molecule returned an EC50 of 0.058 nM.

B15: Anti-PD1-hu1D3V3-Fc (Fc fusion)
chain: QVQLVESGGGLVQPGGSLRLSCAASGSVFIIDVMAWYRQAPGKGLELVAQIINGGATYYADSVKGRFTISRDNSKNTLYLQMNSLRAEDTAVYYCSAEKFNPYRDSTHFWGQGTLVTVSS[human IgG4 Fc with S228P (EU numbers) not written out]
For B15, the IC50 in test [1] was 0.878 nM. The molecule also showed an EC50 in test [2] of 0.058 nM.

B16: Anti-PD1-hu1H1V1-Fc (Fc fusion)
chain: QVQLVESGGGLVQPGGSLRLSCAASGSVFIIDVMAWYRQAPGKQRELVAQIINGGASYYADSVKGRFTISRDNSKNTLYLQMNSLRAEDTAVYYCNAEKFNPYRDSTNFWGQGTLVTVSSGGGGSGGGGS[human IgG4 Fc with S228P (EU numbers) not written out]
B16: in test [1], the IC50 was determined as 1.12 nM. For the same molecule, in test [2], the EC50 is 0.055 nM.

B17: Anti-PD1-1A4-Fc (Fc fusion)
chain: QVQLVESGGGLVQPGGSLNLSCVASGNVFIIDVMAWYRQAPGKQRELVAQIINGDAKYYVDSVKGRFTISRDNTKTTLYLQMNSLKPDDTAIYYCSAEKFNPYRDSTNFWGQGTQVTVSS[human IgG4 Fc with S228P (EU numbers) not written out]
B17: the IC50 in test [1] was 1.45 nM. Besides, in test [2], the midpoint of the response, the EC50, lay at 0.058 nM.

B18: Anti-PD1-2C4-Fc (Fc fusion)
chain: QVQLVESGGGLVRPGGSLRLSCAASGSVFIIDVMAWYRQAPGKQRELVAQIISGDHAYYADSVKGRFTISRDDTKTTLYLQMNSLKPDDTAVYYCSAEKFNPYRDSTYFWGQGTQVTVSS[human IgG4 Fc with S228P (EU numbers) not written out]
In test [1], B18 registered an IC50 of 1.55 nM. This molecule displayed an EC50 in test [2] of 0.067 nM.
